Reference: article PMC4336329 (PLoS ONE, 2015)
The whole screen tested about 310,000 compounds, of which about 14,000 (4.5%) showed an effect of 50% or more. The effect is printed as a negative number. The list shows a part of the results.

These compounds were tested against human ether-à-go-go-related gene (hERG) potassium channel (human, UniProt Q12809) (assay: primary screen, population patch clamp on CHO cells stably expressing hERG).
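Note: peak tail current of the secondary pulse compared with the same well before compound.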

Chain of human ether-à-go-go-related gene (hERG) potassium channel (Q12809 whole entry, looked up): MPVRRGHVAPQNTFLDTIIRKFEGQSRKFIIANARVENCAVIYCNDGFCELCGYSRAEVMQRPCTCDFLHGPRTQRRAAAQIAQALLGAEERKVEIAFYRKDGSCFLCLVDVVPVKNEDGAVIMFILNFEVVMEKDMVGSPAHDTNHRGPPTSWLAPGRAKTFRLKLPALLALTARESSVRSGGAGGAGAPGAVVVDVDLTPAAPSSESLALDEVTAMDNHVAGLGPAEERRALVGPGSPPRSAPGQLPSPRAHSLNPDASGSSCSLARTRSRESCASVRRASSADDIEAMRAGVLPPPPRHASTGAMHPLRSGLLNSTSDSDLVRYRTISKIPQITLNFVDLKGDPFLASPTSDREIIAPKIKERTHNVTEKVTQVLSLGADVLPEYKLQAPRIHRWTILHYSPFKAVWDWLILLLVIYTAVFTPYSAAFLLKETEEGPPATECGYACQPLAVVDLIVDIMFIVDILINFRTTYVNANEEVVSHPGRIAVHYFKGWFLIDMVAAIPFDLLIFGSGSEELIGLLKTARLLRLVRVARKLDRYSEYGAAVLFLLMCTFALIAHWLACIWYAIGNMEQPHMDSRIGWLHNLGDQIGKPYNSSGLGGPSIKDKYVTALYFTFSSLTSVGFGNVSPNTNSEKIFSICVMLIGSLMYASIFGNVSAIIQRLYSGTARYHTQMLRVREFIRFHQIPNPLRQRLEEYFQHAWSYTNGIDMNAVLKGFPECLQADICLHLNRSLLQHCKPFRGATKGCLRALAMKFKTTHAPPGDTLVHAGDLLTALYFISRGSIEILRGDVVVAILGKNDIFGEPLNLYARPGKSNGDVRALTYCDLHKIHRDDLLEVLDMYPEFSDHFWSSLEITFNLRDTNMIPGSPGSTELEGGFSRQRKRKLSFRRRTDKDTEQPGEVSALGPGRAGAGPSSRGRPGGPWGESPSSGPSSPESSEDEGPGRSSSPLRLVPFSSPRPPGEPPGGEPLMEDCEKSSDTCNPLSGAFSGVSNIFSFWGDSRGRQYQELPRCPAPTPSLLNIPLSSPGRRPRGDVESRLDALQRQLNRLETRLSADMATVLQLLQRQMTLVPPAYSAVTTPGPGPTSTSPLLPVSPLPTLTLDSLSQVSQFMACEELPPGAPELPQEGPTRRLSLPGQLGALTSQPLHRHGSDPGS

Row | SMILES | hERG current change (%, negative = inhibition) at 10uM [%]
1 | C#CCNC(=O)C1=C[C@H](c2ccc(Br)cc2)C[C@H](OCCCCO)O1 | -13.7
2 | COc1ccc(NC(=O)CCc2c(C)nc3nc(C)nn3c2C)cc1 | 12.7
3 | OCOCCCn1c(C2CCCN2c2nc(-c3ccc(F)cc3)cs2)nc2cc(Cl)c(N3CCCCC3)cc21 (centres unmarked) | -5.47
4 | CCc1ccc(S(=O)(=O)NCCOc2cccc3cccnc23)cc1 | -36
5 | CN(C)N=Nc1nc2c(c(=O)n(C)c(=O)n2C)n1CC1CO1 (centres unmarked) | -18.7
6 | Cc1cnc(NC(=O)c2cncc(Br)c2)s1 | 17.1
7 | O=C(NNC(=O)c1ccccc1O)c1ccco1 | 18.6
8 | Cc1cccc(NC(=O)CNC(=O)c2cn(Cc3ccccc3)nc2-c2cccnc2)c1C | -17.4
9 | C#CCOCCOCCOCCNc1nc(N2CCN(C(=O)[C@H](Cc3ccc(O)cc3)n3cc([C@@H](N)C(C)CC)nn3)CC2)nc(N2CCN(C(=O)[C@H](Cc3cc4ccccc4[nH]3)n3cc([C@@H](N)Cc4ccc(O)cc4)nn3)CC2)n1.Cl (some centres unmarked) | 7
10 | Cc1cc(C)c(-n2c(O)c(/C=N/NC(=O)c3ccncc3)c(=O)[nH]c2=O)c(C)c1 | 6.13
11 | COc1ccc(CCNC(=O)c2cccc(NS(=O)(=O)c3ccccc3F)c2)cc1OC | 2.36
12 | O=C(NN=C1CCCC1)c1cccs1 | -2.76
13 | Cn1c(N)c(C(C[N+](=O)[O-])c2ccccc2Cl)c(=O)n(C)c1=O (centres unmarked) | 14
14 | COC(=O)c1ccc(Cn2nc(-c3ccc(C)c(C)c3)ccc2=O)cc1 | 16.7
15 | Nc1nc(N)c2c(ccc3nccc32)[nH]1 | 11.6
16 | CN(C)C(CNC(=O)c1ccc2ccccc2c1)c1ccco1 (centres unmarked) | -6.58
17 | CCOc1ccc(CCNC(=O)c2c(C)nn(-c3ccccc3)c2Cl)cc1OCC | -25.3
18 | c1csc(CNc2ncnc3ccc(-c4ccoc4)cc23)c1 | -13.4
19 | COc1ccc(/C=C/C(=O)OCC(=O)NCc2ccccc2)cc1OC | -0.695
20 | N/C(Cc1nc2ccccc2s1)=N\O | 7.15
21 | CCOC(=O)C1=C(N)Oc2cc(O)ccc2C1c1ccc(C)cc1 (centres unmarked) | -14.6
22 | CCCN(CCC)c1nc(NC2CCN(C(=O)OCC)CC2)nc(OC)n1 | -25.4

Row | SMILES | hERG current change (%, negative = inhibition) at 10uM [%]
23 | Cc1sc2nc(C3CC3)nc(SCC(=O)N3CCCc4ccccc43)c2c1C | 22.7
24 | Cc1ccc(NS(=O)(=O)c2ccc(OCC(=O)NCc3ccccn3)cc2)cc1 | 4.79
25 | Cc1nnc(NC(=O)C(C)Sc2nnc(CCNC(=O)c3ccccc3F)n2C)s1 (centres unmarked) | 21.1
26 | CCc1ccc2[nH]c(=O)c(CN(CCN(C)C)C(=S)NCc3ccco3)cc2c1 | -52
27 | Cc1ccc2nc(NC(=O)CCNS(=O)(=O)c3cccs3)sc2c1 | -0.362
28 | CCOC(=O)c1c(CN2CCOCC2)n(-c2ccccc2)c2cc(Br)c(O)c(CN(C)C)c12 | -42.3
29 | CCCC(C)NC(=O)c1ccc(C2SCC(=O)N2Cc2ccco2)cc1 (centres unmarked) | -11.1
30 | O=C(CCc1nnc(-c2ccsc2)o1)N1CCc2c(Cl)cccc2C1 | -34.7
31 | O=C(CSc1ncnc2c1oc1ccccc12)NC1CCCC1 | -7.51
32 | COc1ccc(C(=O)Nc2ccc(O)c3ccccc23)cc1OC | 14.1
33 | N#CCCCC#Cc1ccc2c(c1)COc1c3ccccc3nn1-2 | 6.95
34 | Cc1ccc(C(=O)c2ccccc2C(=O)O)s1 | -1.28
35 | CC(C)=CC(=O)Nc1ccc2c(c1)OCO2 | 10.2
36 | CSc1cccc(NC(=O)Nc2nc3c(C)cccc3s2)c1 | 26.4
37 | Cc1ccc2nc(N3CCN(c4ccccc4)CC3)c(C=O)c(=O)n2c1 | 11.5
38 | COc1ccc(-c2oc(=O)c3cc(OC)c(OC)cc3c2/C=C/c2ccc(F)cc2)cc1 | 9.18
39 | Cn1c(CCN2CCN(c3ccccn3)CC2)nc2cc(NC(=O)COc3ccc([N+](=O)[O-])cc3)ccc21 | -5.69
40 | COc1ccc(C(C)=O)c(Oc2nc(CN3CCOCC3)nc3scc(-c4cccs4)c23)c1 | -43
41 | COc1ccc(OCC(=O)OC(C)CN2CCOCC2)cc1 (centres unmarked) | 14.2
42 | CC(C)C(=O)Nc1ccc(S(=O)(=O)Nc2nccc(/C=C/c3ccccc3)n2)cc1 | 3.27
43 | COc1cccc(CN(C)C(=S)Nc2cccc(C)c2)c1 | 2.64
44 | CC1CCN(S(=O)(=O)c2ccc3c(c2)c(=O)c(C(=O)NC2CCCC2)cn3C)CC1 | -16.9

Row | SMILES | hERG current change (%, negative = inhibition) at 10uM [%]
45 | O=C(CN1C(=O)CCC1=O)Nc1nc(-c2ccc3ccccc3c2)cs1 | -1.28
46 | CCOc1ccc(NC(=O)C/C(C)=N/NC(=O)Cc2cccs2)cc1 | 9.73
47 | COCCNC(=O)C(=O)NCC1OCCN1C(=O)c1ccc(Cl)cc1 (centres unmarked) | -8.52
48 | Cc1cc(/C=N/NC(N)=O)c(C)n1C1CCCCC1 | 1.46
49 | O=C(CN1CCCC1)Nc1c2c(nc3ccccc13)N(Cc1ccccc1)CC2.O=C(O)C(=O)O | 6.05
50 | C=CCc1cccc2cc(C(=O)N3CCN(C(=O)c4ccccc4)CC3)c(=O)oc12 | -12.9
51 | Cc1cccnc1NC(=O)C1CCN(S(=O)(=O)c2ccc3c(c2)CCC(=O)N3)CC1 | 16.1
52 | COc1ccc2nc(SCC(=O)Nc3ccc4c(c3)CCC4)[nH]c2c1 | 8.79
53 | COC(=O)C(C)Sc1ccc2nnc(-c3ccccc3)n2n1 (centres unmarked) | -30.8
54 | Cc1ccc(C(=O)NN2CCOCC2)cc1[N+](=O)[O-] | 13.5
55 | N#CCSc1nc2ccccc2o1 | 4.88
56 | COc1cc(OC)cc(C(=O)NNS(=O)(=O)c2ccc(F)cc2)c1 | 9.4
57 | Brc1ccc(/C=N/n2cnnc2)s1 | 11.2
58 | Cc1ccc(/C(N)=N/OC(=O)CCCc2ccccc2)cc1 | 4.79
59 | O=C(Nc1ccc(Br)cc1)N1CCCCCCC1 | -3.66
60 | CC(Oc1ccc2c3c(c(=O)oc2c1)CCC3)C(=O)NC1CCN(Cc2ccccc2)CC1 (centres unmarked) | -47.9
61 | Cn1c(NC(=O)c2ccc(Cl)s2)cc(=O)n(C)c1=O | 2.36
62 | COc1ccc(CC(=O)Nc2cc(NC(=O)Cc3ccc(OC)c(OC)c3)cc(C(=O)O)c2)cc1OC | 14.3
63 | NNc1nc(-c2ccccc2Cl)c2cc(Br)ccc2n1 | -7.15
64 | CCC(Sc1nc2ccccc2c2nc3ccccc3n12)C(=O)NCc1ccco1 (centres unmarked) | -4.79
65 | CCN(CC)c1ccc(NC(=O)COc2ccccc2C)cc1S(=O)(=O)Nc1ccccc1OC | 25.2
66 | Cc1c(C(c2ccc([N+](=O)[O-])cc2)c2c(C)n(C)n(-c3ccccc3)c2=O)c(=O)n(-c2ccccc2)n1C | -19.7

Row | SMILES | hERG current change (%, negative = inhibition) at 10uM [%]
67 | O=C(CCC(=O)N1CCOc2ccc(Cl)cc21)N1CCN(c2ccccn2)CC1 | -57.5
68 | C/C(=N\NC(=O)c1ccco1)c1cc(Cl)sc1Cl | -6.11
69 | COC(=O)CC1C(=O)NCCN1C(=O)Nc1ccc(Cl)c(Cl)c1 (centres unmarked) | 17.3
70 | O=C(Cc1c(Sc2ccccc2)c2ccccc2n1Cc1ccccc1)NCCO | 10.3
71 | COc1ccc(-n2nnc3c(=O)n(CC(=O)N4CCC(C)CC4)cnc32)cc1 | -2.4
72 | O=C(NC1=NCCS1)c1cc(Cl)ccc1Cl | -24
73 | COc1ccc(CN2CCC(n3nccc3NC(=O)C3CCCC3)CC2)cc1 | -68.9
74 | NC(=O)[C@@H]1CCCCNc2c(F)cc([N+](=O)[O-])cc2C(=O)N[C@@H](CCCN=C(N)N)C(=O)NCC(=O)N1 | 15.5
75 | COc1cc(OC)c(C(=O)Nc2ccc(N(C)C)cc2)cc1OC | 1.22
76 | COc1ccccc1CN1CCc2c([nH]c3ccccc23)C1 | -23
77 | Cc1c(Cl)cccc1NC(=O)Cn1cccc1 | -3.82
78 | Cc1c(NC(=O)Cn2cc([N+](=O)[O-])cn2)c(=O)n(-c2ccccc2)n1C | 11.7
79 | COCc1cc(=O)[nH]c(Nc2nc(C)c3ccccc3n2)n1 | -8.74
80 | N#Cc1nc(-c2ccccc2F)oc1NC1CCCCC1 | -9.17
81 | O=C(NC(NC(=S)Nc1cccc(Cl)c1)C(Cl)(Cl)Cl)OCc1ccccc1 (centres unmarked) | 12
82 | CCOC(=O)c1ccc(NC(=O)c2cccc(S(=O)(=O)N3c4ccccc4CC3C)c2)s1 (centres unmarked) | 15
83 | COc1ccc(C=O)cc1 | 13.9
84 | COC(c1ccccc1)(c1ccccc1)C(Oc1nc(C)cc(C)n1)C(=O)O (centres unmarked) | 24.8
85 | Cn1c(SCCC(=O)O)nnc1-c1ccncc1 | 1.73
86 | COc1ccc(C2C(C(=O)c3cccs3)=C(O)C(=O)N2c2nncs2)cc1 (centres unmarked) | 6.77
